Source: the supplement of paper PMC7826260
This is one part of the list. The data describe in vitro nicking of single-stranded DNA by Rep domains at 3 µM enzyme and 37 °C for 1 h; the strands have 90 letters, of which the middle is given. Uncut reads are compared with the no-enzyme pool on a log2 scale; more negative means more cut, near 0 not cut, and no call is made. The scaling is to total reads; where an enzyme cuts many sequences, the uncut ones exceed 0.

Legend:
Test in all cases: uncleaved DNA left, log2 of reads against the no-enzyme library (log2 ratio); higher = less cleavage (more negative = more Rep cleavage of the k-mer); sequences stand for … in CTCGTCCG…ACCGGAGA
[1] = tested on: T1, Rep nickase domain of Muscovy duck circovirus
T1 sequence (residues 1-111 of Rep, tag left off): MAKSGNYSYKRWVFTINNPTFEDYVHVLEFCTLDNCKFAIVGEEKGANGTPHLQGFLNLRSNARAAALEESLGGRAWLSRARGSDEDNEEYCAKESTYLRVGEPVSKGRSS
Protocol: (§1)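 A pool of 90-nt single-stranded DNAs with seven random bases just before the constant AC of the nick site (name = the seven bases) was cut by 3 µM recombinant His6-SUMO-tagged Rep nickase domain (300 nM DNA, 50 mM HEPES pH 8.0, 50 mM NaCl, 1 mM MnCl2, 1 h, 37 °C, three replicates). Uncut DNA was amplified and sequenced.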

[2] = tested on: T2, Rep nickase domain of banana bunchy top virus
T2 sequence (residues 1-94 of Rep, tag left off): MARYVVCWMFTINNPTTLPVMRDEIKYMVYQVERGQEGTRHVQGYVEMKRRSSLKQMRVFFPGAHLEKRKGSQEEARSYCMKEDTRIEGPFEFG
Protocol: as §1

[3] = tested on: T3, Rep nickase domain of cabbage leaf curl virus
T3 sequence (residues 1-116 of Rep, tag left off): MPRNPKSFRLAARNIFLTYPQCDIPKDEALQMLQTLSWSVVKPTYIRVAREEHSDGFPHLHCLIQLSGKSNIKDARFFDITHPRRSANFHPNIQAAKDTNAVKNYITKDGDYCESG
Protocol: as §1

[4] = tested on: T4, Rep nickase domain of chickpea chlorotic dwarf virus
T4 sequence (residues 1-124 of Rep, tag left off): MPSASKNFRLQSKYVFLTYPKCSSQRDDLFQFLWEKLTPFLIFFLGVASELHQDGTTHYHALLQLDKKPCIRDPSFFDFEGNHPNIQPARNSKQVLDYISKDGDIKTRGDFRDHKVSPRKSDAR
Protocol: as §1

[5] = tested on: T5, Rep nickase domain of faba bean necrotic yellows virus
T5 sequence (residues 1-98 of Rep, tag left off): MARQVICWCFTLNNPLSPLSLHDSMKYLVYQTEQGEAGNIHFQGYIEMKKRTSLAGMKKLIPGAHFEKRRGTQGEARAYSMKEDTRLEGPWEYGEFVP
Protocol: as §1

[6] = tested on: T6, Rep nickase domain of maize striate mosaic virus
T6 sequence (residues 1-117 of Rep, tag left off): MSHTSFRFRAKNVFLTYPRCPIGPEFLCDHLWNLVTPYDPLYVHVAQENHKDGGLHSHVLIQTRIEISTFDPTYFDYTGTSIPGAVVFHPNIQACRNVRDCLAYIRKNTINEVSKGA
Protocol: as §1

[7] = tested on: T7, Rep nickase domain of porcine circovirus 2
T7 sequence (residues 2-116 of Rep, tag left off): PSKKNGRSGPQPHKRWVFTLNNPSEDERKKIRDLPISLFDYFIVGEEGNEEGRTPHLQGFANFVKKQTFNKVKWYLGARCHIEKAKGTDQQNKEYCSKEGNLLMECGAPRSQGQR
Protocol: as §1

[8] = tested on: T8, Rep nickase domain of tomato golden mosaic virus
T8 sequence (residues 1-124 of Rep, tag left off): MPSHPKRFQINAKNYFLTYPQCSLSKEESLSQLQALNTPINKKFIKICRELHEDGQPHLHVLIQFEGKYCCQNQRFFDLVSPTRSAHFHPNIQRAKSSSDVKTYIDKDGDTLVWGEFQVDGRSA
Protocol: as §1

[9] = tested on: T9, Rep nickase domain of tomato yellow leaf curl virus
T9 sequence (residues 1-136 of Rep, tag left off): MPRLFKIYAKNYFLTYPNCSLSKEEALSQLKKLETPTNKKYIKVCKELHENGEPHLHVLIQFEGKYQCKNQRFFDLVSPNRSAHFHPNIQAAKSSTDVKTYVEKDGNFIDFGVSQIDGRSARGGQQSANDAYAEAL
Protocol: as §1

[10] = tested on: T10, Rep nickase domain of wheat dwarf virus
T10 sequence (residues 1-137 of Rep, tag left off): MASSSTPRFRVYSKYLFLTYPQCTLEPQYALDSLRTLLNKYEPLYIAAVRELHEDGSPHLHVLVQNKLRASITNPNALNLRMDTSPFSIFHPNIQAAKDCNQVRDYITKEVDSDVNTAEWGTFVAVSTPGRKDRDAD
Protocol: as §1

Sequence | uncleaved DNA left (log2) [1] | uncleaved DNA left (log2) [2] | uncleaved DNA left (log2) [3] | uncleaved DNA left (log2) [4] | uncleaved DNA left (log2) [5] | uncleaved DNA left (log2) [6] | uncleaved DNA left (log2) [7] | uncleaved DNA left (log2) [8] | uncleaved DNA left (log2) [9] | uncleaved DNA left (log2) [10]
GTCCCAA | 0.102 | 0.127 | 0.248 | 0.889 | -0.0771 | 1.76 | 0.0278 | 0.181 | 0.146 | 0.116
AGCAATT | -0.00297 | 0.169 | -0.053 | -0.929 | 0.0982 | 0.536 | -0.571 | 0.0314 | 0.0616 | 0.0173
GGGCGAA | -0.0518 | -0.0703 | 0.725 | 1.78 | -0.00289 | 2.02 | 0.23 | 0.059 | 0.0316 | 0.116
GGTTGCC | -0.0784 | 0.0244 | -0.0738 | 0.312 | -0.181 | -0.0891 | 0.0433 | -0.0782 | 0.0872 | -0.0937
AGGAATC | 0.142 | 0.0872 | 0.311 | 0.811 | 0.119 | 0.542 | 0.095 | 0.0621 | 0.14 | 0.185
TCCTTCC | -0.0214 | -0.0161 | 0.147 | -0.168 | 0.0283 | -0.402 | 0.0165 | -0.158 | -0.0491 | -0.0875
TGGAGGG | 0.183 | 0.164 | 0.136 | 0.251 | 0.162 | -0.0768 | 0.182 | 0.108 | -0.00811 | 0.0427
ACCAATC | -0.0336 | 0.0343 | -0.133 | 0.0341 | 0.052 | -0.711 | 0.114 | 0.12 | 0.0656 | 0.088
GCGTGGC | 0.0779 | 0.0312 | 0.00507 | 0.308 | -0.0108 | -0.212 | 0.165 | 0.0924 | -0.027 | -0.049
TTACGCG | 0.0236 | -0.0346 | -1.09 | -0.274 | 0.0648 | -0.688 | -0.00771 | -0.045 | -0.0575 | -0.117
TACGTCG | -0.00643 | 0.00464 | -0.823 | -0.464 | 0.0423 | -1.16 | 0.0735 | -0.0289 | -0.0583 | -0.106
TTCTTAG | 0.0564 | -0.102 | -0.884 | -0.827 | -0.0407 | -1.24 | 0.1 | -0.0667 | -0.0373 | -0.092
GGGTCCA | -0.0299 | 0.0796 | 0.739 | 1.67 | -0.131 | 2.07 | 0.0712 | -0.0278 | -0.00639 | 0.118
CGCACGG | 0.0455 | 0.104 | 0.346 | 1.03 | 0.0426 | 1.67 | 0.143 | 0.114 | 0.0299 | 0.046
TAATCGT | -1.91 | -0.0357 | -4.12 | -3.13 | 0.0368 | -3.23 | -3.61 | -4.13 | -0.185 | -3.88
GTAAAGG | 0.0155 | 0.00828 | 0.431 | 1.14 | -0.000283 | 1.39 | 0.0701 | 0.0483 | -0.0617 | -0.0403
GAGTCGG | 0.0689 | 0.0743 | 0.462 | 1.18 | 0.0339 | 1.53 | 0.0502 | 0.0865 | -0.0482 | 0.011
CTCGAAG | 0.0472 | 0.0162 | -0.728 | -0.404 | 0.0359 | -0.962 | 0.305 | 0.109 | 0.0771 | -0.0336
TAACAAA | -0.039 | 0.0667 | -0.356 | -2.37 | 0.065 | -0.611 | 0.0375 | 0.0509 | 0.0152 | -0.00221
GTAAGGG | 0.00202 | 0.0483 | 0.228 | 0.594 | 0.0254 | 0.179 | 0.119 | -0.0234 | 0.00425 | -0.00578
TGTTAAA | 0.103 | 0.119 | 0.256 | 0.372 | 0.0729 | 0.422 | 0.0729 | 0.0545 | 0.125 | 0.0881
GAAGATA | 0.134 | 0.102 | 0.215 | -0.857 | 0.156 | 1.05 | 0.19 | 0.229 | 0.147 | 0.102
ACTTTCG | -0.106 | -0.0459 | -0.751 | 0.511 | -0.0523 | -0.431 | 0.0499 | -0.0691 | -0.0452 | -0.168
GTAGAAG | 0.0343 | -0.029 | -0.149 | -0.0949 | -0.161 | -0.676 | 0.0761 | 0.16 | 0.0566 | 0.00223
AGCGGTC | 0.0682 | 0.0101 | 0.0155 | 0.494 | -0.0467 | 0.547 | -0.222 | -0.00903 | -0.0747 | 0.0085
GCGGGTA | 0.0808 | 0.0506 | 0.55 | 0.974 | -0.037 | 1.65 | 0.0995 | 0.181 | -0.0388 | 0.0827
CAGCGCA | 0.00122 | -0.0606 | -0.133 | -0.101 | -0.156 | -0.135 | -0.0735 | -0.0165 | -0.0416 | -0.0287
TGAGCTA | 0.038 | -0.0171 | 0.0252 | -0.0148 | -0.00341 | 0.403 | -0.484 | 0.136 | 0.0239 | 0.0279
TACTCCC | -0.437 | -0.202 | -0.289 | -1.35 | -0.0332 | -0.217 | -2.67 | -0.287 | -0.263 | -0.201
CCGTAGC | 0.117 | -0.0318 | -0.2 | -0.421 | -0.0561 | -0.815 | 0.0525 | 0.0114 | -0.0394 | -0.0855
